In the supplement of paper PMC4604168 (melanoma cell lines):
This is one part of the list. Single values are uncertain, as repeats are few or missing.

Assays:
Experiment in all cases: cell count relative to DMSO control; melanoma cells; higher = more viable cells
Conditions in all cases: library dose: standard library concentration; 72 h
G361 = system: G361
IPC-298 = system: IPC-298
IST-MEL1 = system: IST-MEL1
LB2518-MEL = system: LB2518-MEL
LOXIMVI = system: LOXIMVI
MEL-HO = system: MEL-HO
MZ2-MEL = system: MZ2-MEL
MeWo = system: MeWo
RPMI7951 = system: RPMI7951
RVH-421 = system: RVH-421
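Further: cells treated in 1,536-well plates, then fixed and DAPI-stained, with nuclei counted from automated high-throughput microscope images.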

Compound	cell count (G361)	cell count (IPC-298)	cell count (IST-MEL1)	cell count (LB2518-MEL)	cell count (LOXIMVI)	cell count (MEL-HO)	cell count (MZ2-MEL)	cell count (MeWo)	cell count (RPMI7951)	cell count (RVH-421)
NC1(c2ccc(-c3nc4ccn5c(=O)[nH]nc5c4cc3-c3ccccc3)cc2)CCC1 + O=S(=O)(c1ccccc1)N(CC(F)(F)F)c1ccc(C(O)(C(F)(F)F)C(F)(F)F)cc1 [T0901317] (first compound 2 µM, partner dose 7 µM)	85.9%	87.1%	79%	86%	68.3%	83%	79.9%	65.7%	61.3%	110%
CCCS(=O)(=O)Nc1ccc(F)c(C(=O)c2c[nH]c3ncc(Cl)cc23)c1F + CCN(CC)CCCCNc1ncc2cc(-c3cc(OC)cc(OC)c3)c(NC(=O)NC(C)(C)C)nc2n1 [PD173074] (first compound 0.4 µM, partner dose 0.5 µM)	82.5%	90.4%	110%	104%	94.7%	109%	102%	75.2%	128%	94.2%
CS(=O)(=O)c1ccc(C(=O)Nc2ccc(Cl)c(-c3ccccn3)c2)c(Cl)c1 [vismodegib] + CC(C)CCN1c2nc(Nc3cc(F)c(O)c(F)c3)ncc2N(C)C(=O)C1C [BID1870] (first compound 5 µM, partner dose 1 µM)	62.6%	79.3%	86.3%	90.5%	89.7%	72.3%	89.1%	76.4%	90.9%	77.7%
CCCS(=O)(=O)Nc1ccc(F)c(C(=O)c2c[nH]c3ncc(Cl)cc23)c1F + NCC(=O)Nc1ccc(-n2nc(C(F)(F)F)cc2-c2ccc3c(ccc4ccccc43)c2)cc1 [OSU03012] (first compound 0.4 µM, partner dose 5 µM)	60.8%	43.5%	67.7%	67.8%	99.3%	67.9%	54.7%	88.8%	67.7%	72.9%
CN(c1ncccc1CNc1nc(Nc2ccc3c(c2)CC(=O)N3)ncc1C(F)(F)F)S(C)(=O)=O + Nc1ccn([C@@H]2O[C@H](CO)[C@@H](O)C2(F)F)c(=O)n1 [gemcitabine] (first compound 0.4 µM, partner dose 0.002 µM)	35.5%	46.3%	43.7%	68.3%	85.7%	50%	67.2%	56.5%	55.8%	53.2%
CS(=O)(=O)c1ccc(C(=O)Nc2ccc(Cl)c(-c3ccccn3)c2)c(Cl)c1 [vismodegib] + c1cc(-c2cnn3cc(-c4ccc(OCCN5CCCCC5)cc4)cnc23)ccn1 [Dorsomorphin] (first compound 5 µM, partner dose 2 µM)	43%	83.9%	74.2%	82.5%	108%	81%	71.2%	63%	61.4%	132%
CN(c1ncccc1CNc1nc(Nc2ccc3c(c2)CC(=O)N3)ncc1C(F)(F)F)S(C)(=O)=O + CNC(=O)c1cc(Oc2ccc(NC(=O)Nc3ccc(Cl)c(C(F)(F)F)c3)cc2)ccn1 [sorafenib] (first compound 0.4 µM, partner dose 2 µM)	71.3%	92.1%	85.1%	95.1%	118%	84.1%	107%	85.2%	47.5%	87.6%
CS(=O)(=O)c1ccc(C(=O)Nc2ccc(Cl)c(-c3ccccn3)c2)c(Cl)c1 [vismodegib] + Nc1ncn([C@H]2C[C@H](O)[C@@H](CO)O2)c(=O)n1 [decitabine] (first compound 5 µM, partner dose 0.5 µM)	113%	63.6%	79.3%	99.2%	111%	98.2%	97.4%	75.9%	97.5%	121%
CS(=O)(=O)c1ccc(C(=O)Nc2ccc(Cl)c(-c3ccccn3)c2)c(Cl)c1 [vismodegib] + CC1(C)NC(=O)N(c2ccc([N+](=O)[O-])c(C(F)(F)F)c2)C1=O [nilutamide] (first compound 5 µM, partner dose 5 µM)	110%	97.5%	93.1%	85.7%	114%	92.7%	116%	102%	105%	111%
CS(=O)(=O)c1ccc(C(=O)Nc2ccc(Cl)c(-c3ccccn3)c2)c(Cl)c1 [vismodegib] + CC(=O)c1c(C)c2cnc(Nc3ccc(N4CCNCC4)cn3)nc2n(C2CCCC2)c1=O [palbociclib] (first compound 5 µM, partner dose 0.2 µM)	58.9%	67.3%	78.4%	66%	122%	87.9%	72.1%	64.1%	78.8%	81.3%
NC1(c2ccc(-c3nc4ccn5c(=O)[nH]nc5c4cc3-c3ccccc3)cc2)CCC1 + CCCS(=O)(=O)Nc1ccc(F)c(C(=O)c2c[nH]c3ncc(Cl)cc23)c1F [PLX4720] (first compound 2 µM, partner dose 0.4 µM)	32.9%	73.2%	71.4%	76.4%	84.7%	54.4%	55.6%	69.1%	63.2%	98%
C=C(c1ccc(C(=O)O)cc1)c1cc2c(cc1C)C(C)(C)CCC2(C)C [Bexarotene] + COc1ccc(-c2ccc3c(N4CCOCC4)nc(N4C[C@@H](C)O[C@@H](C)C4)nc3n2)cc1CO [KU0063794] (first compound 10 µM, partner dose 0.1 µM)	89.5%	74.6%	82.5%	78.4%	122%	82.7%	75.2%	81.2%	64.1%	68.6%
C=C(c1ccc(C(=O)O)cc1)c1cc2c(cc1C)C(C)(C)CCC2(C)C [Bexarotene] + O=C(Nc1ccccc1)c1cc([N+](=O)[O-])ccc1Cl [GW9662] (first compound 10 µM, partner dose 10 µM)	70.9%	85.6%	85.8%	85.6%	106%	85.8%	74.9%	84.3%	69.2%	35%
CS(=O)(=O)c1ccc(C(=O)Nc2ccc(Cl)c(-c3ccccn3)c2)c(Cl)c1 [vismodegib] + Cn1c(=O)n(-c2ccc(C(C)(C)C#N)cc2)c2c3cc(-c4cnc5ccccc5c4)ccc3ncc21 [NVP-BEZ235] (first compound 5 µM, partner dose 0.02 µM)	62.4%	68.1%	72.9%	94.7%	100%	67.1%	93.7%	69.2%	85.1%	113%
C=C(c1ccc(C(=O)O)cc1)c1cc2c(cc1C)C(C)(C)CCC2(C)C [Bexarotene] + CC1(C)NC(=O)N(c2ccc([N+](=O)[O-])c(C(F)(F)F)c2)C1=O [nilutamide] (first compound 10 µM, partner dose 5 µM)	87.6%	95.7%	78.1%	101%	147%	99.8%	108%	88.3%	106%	80.3%
CCCS(=O)(=O)Nc1ccc(F)c(C(=O)c2c[nH]c3ncc(Cl)cc23)c1F + O=C(Nc1ccccc1)c1cc([N+](=O)[O-])ccc1Cl [GW9662] (first compound 0.4 µM, partner dose 10 µM)	73.6%	94.7%	83.9%	81.7%	93.3%	81.9%	72.8%	75.6%	77.1%	77.7%

Compound	cell count (G361)	cell count (IPC-298)	cell count (IST-MEL1)	cell count (LB2518-MEL)	cell count (LOXIMVI)	cell count (MEL-HO)	cell count (MZ2-MEL)	cell count (MeWo)	cell count (RPMI7951)	cell count (RVH-421)
CS(=O)(=O)c1ccc(C(=O)Nc2ccc(Cl)c(-c3ccccn3)c2)c(Cl)c1 [vismodegib] + CCN(CC)CCCCNc1ncc2cc(-c3cc(OC)cc(OC)c3)c(NC(=O)NC(C)(C)C)nc2n1 [PD173074] (first compound 5 µM, partner dose 0.5 µM)	110%	115%	141%	113%	183%	109%	107%	99.8%	114%	134%
CN(c1ncccc1CNc1nc(Nc2ccc3c(c2)CC(=O)N3)ncc1C(F)(F)F)S(C)(=O)=O + CCN(CC)CCCCNc1ncc2cc(-c3cc(OC)cc(OC)c3)c(NC(=O)NC(C)(C)C)nc2n1 [PD173074] (first compound 0.4 µM, partner dose 0.5 µM)	89.4%	84.7%	82.7%	80.6%	67.7%	96.9%	79%	93.5%	67.3%	88.1%
CS(=O)(=O)c1ccc(C(=O)Nc2ccc(Cl)c(-c3ccccn3)c2)c(Cl)c1 [vismodegib] + COc1ccc(Cl)c(Nc2nc3ccccc3nc2NS(=O)(=O)c2cccc(NC(=O)C(C)(C)N)c2)c1 [XL147] (first compound 5 µM, partner dose 4 µM)	69.1%	84.5%	62.2%	81.4%	79.2%	74.5%	82.8%	84.8%	124%	16.3%
C=C(c1ccc(C(=O)O)cc1)c1cc2c(cc1C)C(C)(C)CCC2(C)C [Bexarotene] + C=CCn1c(=O)c2cnc(Nc3ccc(N4CCN(C)CC4)cc3)nc2n1-c1cccc(C(C)(C)O)n1 [MK1775] (first compound 10 µM, partner dose 0.1 µM)	83.7%	82%	77.8%	68%	81.5%	94.8%	124%	79.4%	59.5%	62.7%
CS(=O)(=O)c1ccc(C(=O)Nc2ccc(Cl)c(-c3ccccn3)c2)c(Cl)c1 [vismodegib] + COC(=O)c1sccc1S(=O)(=O)Nc1ccc(Nc2ccccc2)cc1OC [GSK0660] (first compound 5 µM, partner dose 5 µM)	97.4%	104%	113%	110%	138%	99.7%	96.4%	118%	90.1%	123%
CS(=O)(=O)c1ccc(C(=O)Nc2ccc(Cl)c(-c3ccccn3)c2)c(Cl)c1 [vismodegib] + Cc1ccc(NC(=O)c2cccc(N(C)C)c2)cc1NC(=O)c1ccc(O)cc1 [ZM336372] (first compound 5 µM, partner dose 10 µM)	121%	114%	107%	115%	136%	109%	129%	92.2%	111%	112%
NC1(c2ccc(-c3nc4ccn5c(=O)[nH]nc5c4cc3-c3ccccc3)cc2)CCC1 + CCCCCCCCCCCC1=C(O)C(=O)C=C(O)C1=O [Embelin] (first compound 2 µM, partner dose 6 µM)	74.7%	76.8%	68%	72.1%	88.2%	67.4%	86.1%	73.9%	70.9%	64.3%
NC1(c2ccc(-c3nc4ccn5c(=O)[nH]nc5c4cc3-c3ccccc3)cc2)CCC1 + Nc1ncn([C@H]2C[C@H](O)[C@@H](CO)O2)c(=O)n1 [decitabine] (first compound 2 µM, partner dose 0.5 µM)	80.7%	57%	75.9%	71%	55.8%	68.5%	64.4%	60.5%	79%	130%
C=C(c1ccc(C(=O)O)cc1)c1cc2c(cc1C)C(C)(C)CCC2(C)C [Bexarotene] + Nc1ccn([C@@H]2O[C@H](CO)[C@@H](O)C2(F)F)c(=O)n1 [gemcitabine] (first compound 10 µM, partner dose 0.002 µM)	38.2%	42.4%	25.4%	63.1%	79.2%	57.6%	65.6%	36.4%	62.1%	56.7%
CN(c1ncccc1CNc1nc(Nc2ccc3c(c2)CC(=O)N3)ncc1C(F)(F)F)S(C)(=O)=O + Cc1ccc(NC(=O)c2cccc(N(C)C)c2)cc1NC(=O)c1ccc(O)cc1 [ZM336372] (first compound 0.4 µM, partner dose 10 µM)	64.6%	95.3%	42.1%	72.6%	79%	73.4%	80%	88.6%	38.7%	72.9%
CS(=O)(=O)c1ccc(C(=O)Nc2ccc(Cl)c(-c3ccccn3)c2)c(Cl)c1 [vismodegib] + O=C(O)c1ccc(-c2c[nH]c3ncc(-c4ccccc4)cc23)cc1C1CCCC1 [GSK650394] (first compound 5 µM, partner dose 0.8 µM)	78.2%	103%	99.8%	113%	101%	84.7%	118%	80.1%	130%	102%
CCCS(=O)(=O)Nc1ccc(F)c(C(=O)c2c[nH]c3ncc(Cl)cc23)c1F + Nc1ncn([C@H]2C[C@H](O)[C@@H](CO)O2)c(=O)n1 [decitabine] (first compound 0.4 µM, partner dose 0.5 µM)	74.3%	49.6%	79.1%	85.8%	109%	68.2%	68.1%	88%	99.1%	77.1%
C=C(c1ccc(C(=O)O)cc1)c1cc2c(cc1C)C(C)(C)CCC2(C)C [Bexarotene] + CC(C)(C)c1cnc(CSc2cnc(NC(=O)C3CCNCC3)s2)o1 [SNS-032] (first compound 10 µM, partner dose 0.05 µM)	72.2%	83.5%	98.6%	92.8%	83.8%	85%	102%	87.5%	53.2%	71.4%
NC1(c2ccc(-c3nc4ccn5c(=O)[nH]nc5c4cc3-c3ccccc3)cc2)CCC1 + COc1ccc(COc2ccc(Cc3cnc(N)nc3N)cc2OC)cc1 [GW2580] (first compound 2 µM, partner dose 5 µM)	84.5%	85.1%	82.9%	83.5%	97.4%	72.5%	87.6%	65.9%	76.6%	81.5%
CN(c1ncccc1CNc1nc(Nc2ccc3c(c2)CC(=O)N3)ncc1C(F)(F)F)S(C)(=O)=O + O=C(O)C(=O)Nc1sc2c(c1C(=O)O)CCNC2 [TCS401] (first compound 0.4 µM, partner dose 8.33333 µM)	83.7%	83.9%	94.3%	79.8%	212%	83.9%	86.9%	97.2%	66.7%	87.8%
CN(c1ncccc1CNc1nc(Nc2ccc3c(c2)CC(=O)N3)ncc1C(F)(F)F)S(C)(=O)=O + COc1ccc(Cl)c(Nc2nc3ccccc3nc2NS(=O)(=O)c2cccc(NC(=O)C(C)(C)N)c2)c1 [XL147] (first compound 0.4 µM, partner dose 4 µM)	71%	71.7%	51.5%	69.2%	108%	63%	68.1%	90.4%	52.9%	68.6%
